In PubChem BioAssay AID1963576 (National Center for Advancing Translational Sciences (NCATS), 2024):
Among all 46,000 compounds or so, about 60 (0.1%) were called active. About 3% were inconclusive and are not listed. The call rests on the fitted dose curve; in most records, active means well fitted inhibition curve with a large enough effect; inconclusive means small, poorly fitted or top-dose-only effect; inactive means no such curve, though single readings can be large or run the other way. The list shows a part of the results.

Experiment: Primary qHTS assay for Inhibitors of ovarian cancer metastasis using an organotypic tumor microenvironment (TME) model. Further: nearly all actives have a fitted effect of over 65% in size.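 On activity change, negative = inhibition: plate controls were DMSO wells for no effect and tomatine positive control wells for full effect.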
Details: SKOV3ip1-GFP adhesion/invasion on 3D omental model, fluorescence; series mostly up to 45.8 µM; activity change, negative = inhibition: at the top concentration
In short: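 A 3D layer of primary human omental fibroblasts, mesothelial cells, fibronectin and collagen I, grown 48 hr, received SKOV3ip1-GFP cells in serum-free medium plus compounds at 0.36-46 umol/L. After 2 hr RT and 16 hr 37 C, fixed adherent GFP cells were counted; normalized to DMSO and tomatine.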

Activity change, negative = inhibition, inactive:
Cc1cccc2c1CC[C@H](CN1CCC(c3c(Cl)cccc3Cl)CC1)C[C@@H]2O 7.93%, COc1ccc2c(c1)CC(C(=O)NCCN1CCN(c3cccc(Cl)c3)CC1)CO2 (centres undefined) 2.13%, CCCc1ccc(OCC(=O)Nc2scc(-c3cccs3)c2C(=O)OC)cc1 -3.02%, Cc1ccc(CNC(=O)c2sc3nc4n(c(=O)c3c2C)CCCC4)cc1 1.2%, Cc1nc(Oc2ccccc2C)c2oc3ccccc3c2n1 3.1%, COc1cccc(NC(=O)CN(C)S(=O)(=O)c2cccs2)c1 7.38%, CCC(=O)N1CCc2cc(CNC(=O)Nc3ccccc3Cl)ccc21 9.24%, CCOc1cc(C#N)c(NC(=O)c2cccc(S(=O)(=O)N3CCOCC3)c2)cc1OCC -5.1%, CCCCCCCCCCCC1=C(O)C(=O)C=C(O)C1=O -21.1%, COc1cc(CNC(=O)CSCc2nc3cccnc3n2C2CCCCC2)cc(OC)c1OC 6.25%, CCCS(=O)(=O)N1CC(=O)N(c2ccccc2F)C(C)(C(=O)NC2CCCCCC2)C1 (centres undefined) 20.7%, CCc1ccc(NC(=O)c2cc(S(=O)(=O)N3CCCC3)ccc2F)cc1 3.24%, Cc1ccc(C(=O)Nc2ccc3c(c2)N(C)C(=O)c2ccccc2S3)cc1 5.36%, CC(C(=O)NCc1ccccc1)N1Cc2ccccc2C1=O (centres undefined) 1.84%, CCC1CCCCN1CCCNC(=O)c1ccc2c(c1)N(Cc1ccccc1F)C(=O)c1ccccc1S2(=O)=O (centres undefined) -17.3%, Cc1csc2nc(COc3ccc(NC(=O)COc4ccccc4F)cc3)cc(=O)n12 -12.9%, COc1ccccc1Cn1c(CNS(=O)(=O)c2ccc3c(c2)CCCC3)nc2cccnc21 25.2%, Fc1ccc(Nc2nc3nonc3nc2Nc2cccc(C(F)(F)F)c2)cc1 -2.9%, O=C(Cn1c(=O)n(-c2ccc(Cl)cc2)c(=O)c2c3c(sc21)CCC3)c1ccc(F)cc1 0.646%, CCCCCOC(=O)CSc1nc2sc3c(c2c(=O)n1Cc1ccccc1)CC(C)(C)OC3 17%, Cn1c(CNC(=O)CSc2n[nH]c(-c3ccccc3)n2)nc2ccccc21 -3.4%, CCC(Sc1nc2c(sc3ccccc32)c(=O)n1CCCC(=O)NC1CCCC1)C(=O)Nc1cccc(OC)c1 (centres undefined) 2.06%, CC(C)CC(=O)N1CC(=O)Nc2ccc(F)cc2C1c1ccccc1 (centres undefined) -1.82%, Cc1ccc(NC(=O)CSc2nnc3[nH]c(=O)cc(C)n23)cc1Cl -5.83%, CC(C)OCCCn1c(SCC(=O)Nc2ccc(F)cc2)nc2c(sc3ccccc32)c1=O 17.2%, NCCCC(N)(C(=O)O)C(F)F (centres undefined) 5.36%, O=[N+]([O-])c1cc(-c2nc(-c3ccccc3)no2)ccc1N1CCCC1 -4.89%, O=C(CSc1nc(-c2ccccc2)[nH]c1-c1ccccc1)Nc1ccc2c(c1)OCO2 -12%, Cc1cccc(Nc2nc(-c3ccccc3)c3cc(C)ccc3n2)c1 3.17%, Cc1ccc(-c2nc3ccccc3o2)cc1NC(=O)c1cccc2c(Cl)cccc12 3.65%, CCC(=O)N1c2ccccc2CC1C(=O)NCCN1CCN(c2cccc(C)c2C)CC1 (centres undefined) 0.133%, Cc1nc2sccn2c(=O)c1S(=O)(=O)Nc1ccc(N2CCN(S(C)(=O)=O)CC2)cc1 -0.696%, CSc1ccc(CCNC(=O)CCn2c(=O)c3cccn3c3cccnc32)cc1 10.9%, CCS(=O)(=O)N1CCc2cc(C(=O)Nc3cccc(C)c3C)ccc21 -2.26%, CCCc1ccc(OC(=O)CSc2nnc(-c3cccs3)o2)cc1 -10.6%, O=C(Nc1ccc(F)cc1)C1CCN(c2nc3ccccc3n3cccc23)CC1 -7.44%, CCOC(=O)C1CCCN(C(=O)c2c(C)nn(-c3ccc(F)cc3)c2-n2cccc2)C1 (centres undefined) 25.6%, COc1ccc(NC(=O)c2cc3c(=O)n(C)c4ccccc4c3s2)cc1Cl -4.04%, Cc1ccc(OCCSc2nc3ccc(NC(=O)c4ccc5c(c4)OCO5)cc3s2)cc1 6.37%, O=C(CCn1cccn1)NCc1ccc(Cl)cc1 8.16%, CCOC(=O)C(CC)Sc1ncnc2sc3c(c12)CCCC3 (centres undefined) -9.8%, Cc1nc(-n2nc(C)c(Cc3ccccc3Cl)c2C)sc1C(=O)N1CCC(C)CC1 -5.55%, CC(=O)c1cccc(NCc2ccccc2-c2nnc(-c3ccccc3)o2)c1 -14.1%, Cc1cccc(NC(=O)CSc2nnc(N)s2)c1 3.95%, O=C(NC1(C(F)(F)F)NC(=O)N(CCc2ccccc2)C1=O)c1ccccc1Cl (centres undefined) 7.42%, Cc1oc2ccc(O)c(CN3CCCCCC3)c2c1C(=O)Nc1cccc(Cl)c1C -14.3%, Cc1cccc(-n2ncc(C(=O)N3CCc4ccccc4C3)c2C2CCN(C(=O)OC(C)(C)C)CC2)c1 -32.8%, Cc1ccc(S(=O)(=O)Nc2cc(Cl)ccc2C(=O)Nc2nc(-c3ccccc3)cs2)cc1 3.52%, COC(=O)c1nnn(CC(=O)Nc2cc(F)ccc2F)c1C(=O)OC -1.62%, O=C(C1CCN(S(=O)(=O)c2cccs2)CC1)N1CCN(c2cccc(Cl)c2)CC1 -13.7%, CCSc1ncc(Cl)c(C(=O)N(Cc2ccccc2Cl)C2CCS(=O)(=O)C2)n1 (centres undefined) 3.55%, CCN(CC)CCCNC(=O)c1ccc2c(c1)N(Cc1c(F)cccc1Cl)C(=O)c1ccccc1S2 -9.19%, N#Cc1c[nH]n2c(NC3CCCCC3)c(-c3ccccc3F)nc12 -1%, Cc1nn2c(=O)cc(COC(=O)c3cccc(NC(=O)COc4ccc(C)c(C)c4)c3)nc2s1 -9.01%, COc1cccc(/C=C/c2nc(C#N)c(N3CCCCCC3)o2)c1 3.82%, Cc1ccc(NC(=O)CCCN2C(=O)COc3ccc(C)cc32)c(Cl)c1 3.95%, CCC1Oc2ccc(C)cc2N(CC(=O)NCCc2ccccc2)C1=O (centres undefined) 9.63%, CCOC(=O)c1cnc2ccc(OC(F)(F)F)cc2c1Nc1ccccc1C(=O)O -2.47%, CCOc1ccc(CCNC(=O)CCn2c(=O)c3cccn3c3ccc(F)cc32)cc1 3.09%, CCc1ccccc1NS(=O)(=O)c1ccc2[nH]cc(C(=O)NC3CCCC3)c(=O)c2c1 13.6%, COC(=O)Cc1c(C)c2ccc3c(c2oc1=O)CN(Cc1ccc(C)cc1)CO3 0.177%, COc1ccc(-n2nnnc2SCC(=O)NCCc2ccccc2)cc1 7.77%, Cc1ccccc1-c1noc(CSc2nc(-c3ccc(F)cc3)cc(=O)[nH]2)n1 -9.03%, O=C(Nc1ccc(OCc2cc(=O)n3c4c(sc3n2)CCCC4)cc1)c1ccc(F)cc1 -1.45%, CCOc1ccc(C(=O)NCCc2sc(-c3cccc(F)c3)nc2C)cc1OCC 3.77%, CCc1ccc(N2CC(c3nc4ccccc4n3Cc3ccccc3C)CC2=O)cc1 (centres undefined) -26.1%, Cc1cccc(CNC(=O)CCCN2C(=O)c3cccnc3Oc3ccccc32)c1 1.49%, COc1ccc(Cn2c(NCC(C)C)nc3c2c(=O)n(C)c(=O)n3C)cc1 26.2%, Cc1ccc(C2=NN(CCC(=O)NCCc3cccc(C)c3)C(=O)CC2)cc1 5.07%, CN(C(=O)CSc1nc2ccc(NC(=O)c3ccccc3)cc2s1)c1ccccc1 -22%, O=C(CSc1oc(-c2cccs2)nc1S(=O)(=O)c1ccccc1)Nc1ccc(F)cc1 -12.1%, COc1cc(CN(C(=O)c2ccc(C)cc2)c2ccccn2)cc(OC)c1OC 2.23%, Cc1ccc(-n2nc(C)c3c(C(=O)Nc4ccc(C)cc4Cl)cc(C)nc32)cc1 11.4%, CCOC(=O)CSc1nc(-c2ccc(OC)cc2)cc(C(F)(F)F)c1C#N 8.82%, CCOc1ccccc1/C=C/c1onc(C)c1S(=O)(=O)N1CCC(C(=O)N2CCCCC2)CC1 -5.7%, COc1ccc(OC)c(CNC(=O)c2cnc(N(C)C)nc2)c1 1.75%, CC(=O)Nc1cccc(-c2nnc(SCC(=O)c3ccc([N+](=O)[O-])cc3)o2)c1 3.93%, COc1ccc(C(=O)CC2(O)C(=O)N(CCc3ccccc3)c3ccc(Br)cc32)cc1OC (centres undefined) -8.15%, O=S(=O)(c1ccc2nc(Nc3ccc(Br)cc3F)ccc2c1)N1CCCC1 1.72%, Cc1ccccc1-c1noc(-c2ccc(NC3CCCC3)c([N+](=O)[O-])c2)n1 -12.7%

outcome, inactive:
O=C(CCNS(=O)(=O)c1ccc2c(c1)CCCC(=O)N2)NCc1ccccc1Cl, Cc1ccc(C)c(NC(=O)CCc2nc(-c3ccc(C(C)(C)C)cc3)no2)c1, COc1ccc(CCNC(=O)c2cc(C)nc3c2c(C)nn3-c2ccccc2)cc1OC, CC1CCN(C(=O)CSc2nc(-c3ccc(C(C)C)cc3)no2)CC1, CCCCc1nn2c(=O)cc(COC(=O)c3ccc(NC(=O)c4cccs4)cc3)nc2s1, CCN1CCSc2ccc(C(=O)NCc3cccc(F)c3)cc21, CC(C)(C)C1CCc2c(sc(NC(=O)Cn3nnc(-c4cccc(C(F)(F)F)c4)n3)c2C#N)C1 (centres undefined), COc1cccc(CNC(=O)CCc2nnc3n(CC(C)C)c(=O)c4ccccc4n23)c1, Cc1ccccc1NCc1cccn1-c1nnc(N2CCOCC2)s1, CCOc1ccc(-c2cc3c(=O)n(CC(=O)NCc4ccc(OC)cc4)ccn3n2)cc1, CCOc1ccc(S(=O)(=O)N2CCC(N3CCN(Cc4ccc(F)cc4)C(=O)C3=O)CC2)cc1, CSc1ncc2c(n1)-c1ccccc1N(Cc1ccc(F)cc1)S2(=O)=O, O=C(NCCc1ccc(Cl)cc1)C(=O)NCC(c1ccco1)S(=O)(=O)c1cccs1 (centres undefined), O=C(Nc1cccc(C(F)(F)F)c1)C1CCN(S(=O)(=O)c2cccc3nsnc23)CC1, COc1ccc(-c2cnc(C)o2)cc1S(=O)(=O)Nc1cccc(C(F)(F)F)c1, CCOC(=O)c1cnn2c(C(F)(F)F)cc(-c3ccc(Br)cc3)nc12, Cc1ccc(NC(=O)Cn2nc(C(F)(F)F)c3c2CCC3)cc1C, NC(=O)C1CCN(c2ncnc3c2cnn3-c2cccc(Cl)c2)CC1, COc1ccc(-c2noc(-c3ccc(NCc4ccco4)c([N+](=O)[O-])c3)n2)cc1OC
